Results from the supplement of paper PMC8728848.
The other results are listed elsewhere or left out.

What was measured:
Assay in all cases: glycan array binding signal (z-score within array); higher = stronger binding
Conditions in all cases: glycan notation: IUPAC condensed, linker removed
[1] = target: GlcNAc(b1-2)[GlcNAc(b1-4)]Man(a1-3)[GlcNAc(b1-4)][GlcNAc(b1-2)[GlcNAc(b1-6)]Man(a1-6)]Man(b1-4)GlcNAc(b1-4)GlcNAc
How it was run: (§1)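 Columns mapping to the same glycan were averaged after glycan names were converted to IUPAC-condensed notation. The data come from 3228 arrays in the Consortium for Functional Glycomics database, limited to those with an available protein sequence. Binding is reported as a within-array Z-score averaged across arrays of one protein sequence and across linkers.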

[2] = target: GlcNAc(b1-2)[GlcNAc(b1-4)]Man(a1-3)[GlcNAc(b1-4)][GlcNAc(b1-2)[GlcNAc(b1-6)]Man(a1-6)]Man(b1-4)GlcNAc(b1-4)[Fuc(a1-6)]GlcNAc
How it was run: as §1

[3] = target: GlcNAc(b1-2)[GlcNAc(b1-6)]Man(a1-6)[GlcNAc(b1-2)Man(a1-3)]Man(b1-4)GlcNAc(b1-4)GlcNAc
How it was run: as §1

[4] = target: GlcNAc(b1-2)[GlcNAc(b1-6)]Man(a1-6)[GlcNAc(b1-2)Man(a1-3)]Man(b1-4)GlcNAc(b1-4)[Fuc(a1-6)]GlcNAc
How it was run: as §1

[5] = target: GlcNAc(b1-2)[GlcNAc(b1-6)]Man(a1-6)[GlcNAc(b1-4)][GlcNAc(b1-2)Man(a1-3)]Man(b1-4)GlcNAc(b1-4)GlcNAc
How it was run: as §1

GlcNAc(b1-3)Fuc = target: GlcNAc(b1-3)Fuc
How it was run: as §1

GlcNAc(b1-3)Gal = target: GlcNAc(b1-3)Gal
How it was run: as §1

[6] = target: GlcNAc(b1-3)Gal(b1-3)GalNAc
How it was run: as §1

GlcNAc(b1-3)Gal(b1-4)Glc = target: GlcNAc(b1-3)Gal(b1-4)Glc
How it was run: as §1

[7] = target: GlcNAc(b1-3)Gal(b1-4)GlcNAc
How it was run: as §1

[8] = target: GlcNAc(b1-3)Gal(b1-4)GlcNAc(b1-2)Man(a1-3)[GlcNAc(b1-3)Gal(b1-4)GlcNAc(b1-2)Man(a1-6)]Man(b1-4)GlcNAc(b1-4)GlcNAc
How it was run: as §1

[9] = target: GlcNAc(b1-3)Gal(b1-4)GlcNAc(b1-2)Man(a1-3)[GlcNAc(b1-3)Gal(b1-4)GlcNAc(b1-2)Man(a1-6)]Man(b1-4)GlcNAc(b1-4)[Fuc(a1-6)]GlcNAc
How it was run: as §1

[10] = target: GlcNAc(b1-3)Gal(b1-4)GlcNAc(b1-2)[GlcNAc(b1-3)Gal(b1-4)GlcNAc(b1-6)]Man(a1-6)[GlcNAc(b1-3)Gal(b1-4)GlcNAc(b1-2)Man(a1-3)]Man(b1-4)GlcNAc(b1-4)GlcNAc
How it was run: as §1

[11] = target: GlcNAc(b1-3)Gal(b1-4)GlcNAc(b1-3)Gal(b1-4)GlcNAc
How it was run: as §1

[12] = target: GlcNAc(b1-3)Gal(b1-4)GlcNAc(b1-3)Gal(b1-4)GlcNAc(b1-2)Man(a1-3)[GlcNAc(b1-3)Gal(b1-4)GlcNAc(b1-3)Gal(b1-4)GlcNAc(b1-2)Man(a1-6)]Man(b1-4)GlcNAc(b1-4)GlcNAc
How it was run: as §1

[13] = target: GlcNAc(b1-3)Gal(b1-4)GlcNAc(b1-3)Gal(b1-4)GlcNAc(b1-2)Man(a1-3)[GlcNAc(b1-3)Gal(b1-4)GlcNAc(b1-3)Gal(b1-4)GlcNAc(b1-2)Man(a1-6)]Man(b1-4)GlcNAc(b1-4)[Fuc(a1-6)]GlcNAc
How it was run: as §1

[14] = target: GlcNAc(b1-3)Gal(b1-4)GlcNAc(b1-3)Gal(b1-4)GlcNAc(b1-2)[GlcNAc(b1-3)Gal(b1-4)GlcNAc(b1-3)Gal(b1-4)GlcNAc(b1-6)]Man(a1-6)[GlcNAc(b1-3)Gal(b1-4)GlcNAc(b1-3)Gal(b1-4)GlcNAc(b1-2)Man(a1-3)]Man(b1-4)GlcNAc(b1-4)[Fuc(a1-6)]GlcNAc
How it was run: as §1

[15] = target: GlcNAc(b1-3)Gal(b1-4)GlcNAc(b1-3)Gal(b1-4)GlcNAc(b1-3)Gal(b1-4)GlcNAc(b1-2)Man(a1-3)[GlcNAc(b1-3)Gal(b1-4)GlcNAc(b1-3)Gal(b1-4)GlcNAc(b1-3)Gal(b1-4)GlcNAc(b1-2)Man(a1-6)]Man(b1-4)GlcNAc(b1-4)GlcNAc
How it was run: as §1

[16] = target: GlcNAc(b1-3)Gal(b1-4)GlcNAc(b1-3)Gal(b1-4)GlcNAc(b1-3)Gal(b1-4)GlcNAc(b1-2)Man(a1-3)[GlcNAc(b1-3)Gal(b1-4)GlcNAc(b1-3)Gal(b1-4)GlcNAc(b1-3)Gal(b1-4)GlcNAc(b1-2)Man(a1-6)]Man(b1-4)GlcNAc(b1-4)[Fuc(a1-6)]GlcNAc
How it was run: as §1

B1: B725 (Bifidobacterium sp) (protein)
chain: MNNTTRAVIATAAIGALLIPLAGCGNTTTSSGKTELTVWSWDASIDRAAKSFMKANPDITVKVSNVGSTEETYTALNNAAQAGSGLPDVTLIEYLAIPQFVHSDTLMDLSKVYNTAKLKDTFTPGTWNSVNINGGLYAMPADSGPMAYFYDKDVFDKAGISEPPTTWDEFYEDAKKIRATGSYITSDSGDAGLFNAMMWAMGGHAYKLNDDKLTINIAKDKGAQRFMDLWQKMRDEDLIDVHTKTWTDDWMKSLGDGSIASLISGAWMANNLLQGVPQATGKFRVALLPTIDGTPINGEYGGSGLAITKKIPDGKLDAAKKFVEYVTTNDEGIDARVSNGSFPATTKTLNQKDFLAKTTLRNTDGSDNEFFGGQKYNEIFSQAAKDVTGKWEFLPFEPYARSVYNDNMGSFFAGKTSFRTAADNWQKALKDYAKDQGFTVQ
- glycan array binding signal (z-score) [1]: -0.225
- glycan array binding signal (z-score) [2]: -0.22
- glycan array binding signal (z-score) [3]: -0.222
- glycan array binding signal (z-score) [4]: -0.211
- glycan array binding signal (z-score) [5]: -0.24
- glycan array binding signal (z-score) (GlcNAc(b1-3)Fuc): -0.207
- glycan array binding signal (z-score) (GlcNAc(b1-3)Gal): -0.227
- glycan array binding signal (z-score) [6]: -0.202
- glycan array binding signal (z-score) (GlcNAc(b1-3)Gal(b1-4)Glc): -0.222
- glycan array binding signal (z-score) [7]: -0.216
- glycan array binding signal (z-score) [8]: -0.199
- glycan array binding signal (z-score) [9]: -0.131
- glycan array binding signal (z-score) [10]: -0.2
- glycan array binding signal (z-score) [11]: 0.622
- glycan array binding signal (z-score) [12]: -0.178
- glycan array binding signal (z-score) [13]: -0.216
- glycan array binding signal (z-score) [14]: -0.203
- glycan array binding signal (z-score) [15]: -0.204
- glycan array binding signal (z-score) [16]: -0.181
